Results published in the supplement of paper PMC7125110.
Variants at the floor of the assay are shown more often than the library holds them.

B1: glmS ribozyme (parent)
chain: AUAAAAGCGCCAGAACUACAGAAAUGUAGUUGACGAGGAGGAGGUUUAUCGAAUUUUCGGCGGAUGCCUCCAAA

Key:
Conditions in all cases: with glucosamine-6-phosphate
[1] = variants of: B1; experiment: self-cleavage kobs at 640 uM GlcN6P; higher = faster cleavage; RNA array
Procedure, shortened: (§1)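 kcat and KM were obtained from weighted Michaelis–Menten fits across concentrations of kobs values. Those came from one- or two-exponential decay fits to per-tile medians normalised to baseline and to non-cleaving reference variants. The variants were barcoded ribozymes transcribed in situ by E. coli RNA polymerase on sequenced MiSeq chips and tracked through a hybridised Cy3 probe at 37 °C, with 40 μM to 10 mM glucosamine-6-phosphate in HEPES/KCl/Mg(OAc)2 buffer flowed in.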

[2] = variants of: B1; experiment: self-cleavage kobs at 2500 uM GlcN6P; higher = faster cleavage; RNA array
Procedure, shortened: as §1

[3] = variants of: B1; experiment: self-cleavage kobs at 160 uM GlcN6P; higher = faster cleavage; RNA array
Procedure, shortened: as §1

[4] = variants of: B1; experiment: self-cleavage kobs at 10000 uM GlcN6P; higher = faster cleavage; RNA array
Procedure, shortened: as §1

Row | Variant | self-cleavage kobs at 640 uM GlcN6P [1] [s⁻¹] | self-cleavage kobs at 2500 uM GlcN6P [2] [s⁻¹] | self-cleavage kobs at 160 uM GlcN6P [3] [s⁻¹] | self-cleavage kobs at 10000 uM GlcN6P [4] [s⁻¹]
1 | AUAAAAGCGCCAGAACUACAGAAAUGUAGUUGUCGAGGAGGAGCUAUAUCGAUUUUUCGGCGGAUGCGUCCAAA [A33U G44C U46A A53U C68G] | < 1e-05 |  |  | 
2 | AUAAAAGCGCCAGAACUACAGAAAUGUAGUUGUCGAGGAGGAGUUUUCUCGAAUUUUCGGCGGAUGCCUCCAAA [A33U G44U A48C] | < 1e-05 |  |  | 
3 | AUAAAAGCGCCAGAACUACAGAAAUGUAGUUGUCGAGGAGGAGGUUUAUCGAAUUUUCCGCGUAUGCCUCCAAA [A33U G59C G63U] | < 1e-05 | < 1e-05 |  | 
4 | AUAAAAGCGCCAGAACUACAGAAAUGUAGUUGUCGAGGAGGAGGGUAAUCGAAUUUUCGGCGGAUGAGUCCAAA [A33U U45G U47A C67A C68G] | < 1e-05 | < 1e-05 |  | 
5 | AUAAAAGCGCCAGAACUACAGAAAUGUAGUUGUCGAGGAGGAGGUUUAGCGAAUUUUCGGCGGAUGCCUCCAAA [A33U U49G] | < 1e-05 |  | < 1e-05 | 
6 | AUAAAAGCGCCAGAACUACAGAAAUGUAGUUGUCGAGGAGGAGGUUUAUCGAAAUUUCGCCGGAUGCCUCCAAA [A33U U54A G60C] | < 1e-05 | < 1e-05 |  | 
7 | AUAAAAGCGCCAGAACUACAGAAAUGUAGUUGUCGAGGAGGAGGUUUAUCGAAUUUCCGGCGGAUGGCUCCAAA [A33U U57C C67G] | < 1e-05 |  |  | < 1e-05
8 | AUAAAAGCGCCAGAACUACAGAAAUGUAGUUGAAGAGGGGGAGGUUUAUCCAAUUGUCGUCGGAUGCCUCCAAA [C34A A39G G51C U56G G60U] | < 1e-05 | < 1e-05 | < 1e-05 | 
9 | AUAAAAGCGCCAGAACUACAGAAAUGUAGUUGAAGAGGUGGAGGUUUAUCGAAUUUUCGGCGGAUGCCUCCAAA [C34A A39U] | < 1e-05 |  |  | 
10 | AUAAAAGCGCCAGAACUACAGAAAUGUAGUUGAAGAGGUGGAGGUUUAUCGAAUUUUAGGCGGAUGCCUCCAAA [C34A A39U C58A] | < 1e-05 |  | < 1e-05 | 
11 | AUAAAAGCGCCAGAACUACAGAAAUGUAGUUGAAGAGGAGGAGGUUUAUCGAAUUUUCGGUAGAUGCCUCCAAA [C34A C61U G62A] | < 1e-05 | < 1e-05 |  | 
12 | AUAAAAGCGCCAGAACUACAGAAAUGUAGUUGAAGAGGAGGAGGUUUAUCGAAUUUUCGGCGGAUGCAUCCAAA [C34A C68A] | < 1e-05 | < 1e-05 | < 1e-05 | 
13 | AUAAAAGCGCCAGAACUACAGAAAUGUAGUUGAAAAGGAGGAGGUUUAUCGAAUUUUCGGCGGAUGCCUCCAAA [C34A G35A] | < 1e-05 | < 1e-05 | < 1e-05 | < 1e-05
14 | AUAAAAGCGCCAGAACUACAGAAAUGUAGUUGAACAGGAGGAGGUUUAUCGAAUUUUCGGCGGAUGCCACCAAA [C34A G35C U69A] | < 1e-05 | < 1e-05 |  | < 1e-05
15 | AUAAAAGCGCCAGAACUACAGAAAUGUAGUUGAAUAGGAGGAGGUUUAUCGAAUUUUCGGCGGAUGCCUCCAAA [C34A G35U] | < 1e-05 |  | < 1e-05 | 
16 | AUAAAAGCGCCAGAACUACAGAAAUGUAGUUGAAGAUGAGGAGGUUUAUCGUAUUUUCGGCGGAUGCCUCCAAA [C34A G37U A52U] | < 1e-05 | < 1e-05 |  | 
17 | AUAAAAGCGCCAGAACUACAGAAAUGUAGUUGAAGAGGACGAGGUUUAUCGAAUUUUCGGUGGAUGCCUCCAAA [C34A G40C C61U] | < 1e-05 |  |  | 

Row | Variant | self-cleavage kobs at 640 uM GlcN6P [1] [s⁻¹] | self-cleavage kobs at 2500 uM GlcN6P [2] [s⁻¹] | self-cleavage kobs at 160 uM GlcN6P [3] [s⁻¹] | self-cleavage kobs at 10000 uM GlcN6P [4] [s⁻¹]
18 | AUAAAAGCGCCAGAACUACAGAAAUGUAGUUGAAGAGGAGCAGGUUUAUCGAAUUUUCGGCGGAUCAAUCCAAA [C34A G41C G66C C67A C68A] | < 1e-05 |  |  | 
19 | AUAAAAGCGCCAGAACUACAGAAAUGUAGUUGAAGAGGAGGAGCUUUAUCGAAUUUUCGGCGGAUGCCUCCAAA [C34A G44C] | < 1e-05 | < 1e-05 | < 1e-05 | 
20 | AUAAAAGCGCCAGAACUACAGAAAUGUAGUUGAAGAGGAGGAGUUUUAUCGAAUUUUCGGCGGAGGCCUCCAAA [C34A G44U U65G] | < 1e-05 | < 1e-05 | < 1e-05 | 
21 | AUAAAAGCGCCAGAACUACAGAAAUGUAGUUGAAGAGGAGGAGGUUUAUCGAAUUUUCGGCGGAUUCCUCCAAA [C34A G66U] | < 1e-05 |  | < 1e-05 | < 1e-05
22 | AUAAAAGCGCCAGAACUACAGAAAUGUAGUUGAAGAGGAGGAGGUCUAUCGAAUUUUCGGCGGAUGCCUCCAAA [C34A U46C] | < 1e-05 | < 1e-05 | < 1e-05 | 
23 | AUAAAAGCGCCAGAACUACAGAAAUGUAGUUGAAGAGGAGGAGGUUCAUCGAAUUUUCGGCGGAUGCCUCCAAA [C34A U47C] | < 1e-05 | < 1e-05 | < 1e-05 | 
24 | AUAAAAGCGCCAGAACUACAGAAAUGUAGUUGAAGAGGAGGAGGUUUAGCGAAUUUUCGGCGGAUGUCUCCAAA [C34A U49G C67U] | < 1e-05 |  | < 1e-05 | 
25 | AUAAAAGCGCCAGAACUACAGAAAUGUAGUUGAAGAGGAGGAGGUUUAUCGAAUUAUCGUCGGAUGCCUCCAAA [C34A U56A G60U] | < 1e-05 |  | < 1e-05 | 
26 | AUAAAAGCGCCAGAACUACAGAAAUGUAGUUGAGGUGGAGGCGGUUUAUCGAAUUUUCGGCGGAUGCCUCCAAA [C34G A36U A42C] | < 1e-05 | < 1e-05 |  | 
27 | AUAAAAGCGCCAGAACUACAGAAAUGUAGUUGAGGAGGGGGAGGUUUAUCGAAUUUUCGGCGGAUGCCUCCAAA [C34G A39G] | < 1e-05 | < 1e-05 | < 1e-05 | < 1e-05
28 | AUAAAAGCGCCAGAACUACAGAAAUGUAGUUGAGGAGGAGGAGGUUUAUCGAGUUUUCGGCGGAUGCCUCCAAA [C34G A53G] | < 1e-05 | < 1e-05 | < 1e-05 | 
29 | AUAAAAGCGCCAGAACUACAGAAAUGUAGUUGAGGAGGACGAGGUAUAACGAAUUUUCGGCGGAUGCCUCCAAA [C34G G40C U46A U49A] | < 1e-05 |  |  | 
30 | AUAAAAGCGCCAGAACUACAGAAAUGUAGUUGAGGAGGAUGAGGUUUAUCGAAUUUUCGGCGGAUGCCUCCAAA [C34G G40U] | < 1e-05 |  |  | < 1e-05
31 | AUAAAAGCGCCAGAACUACAGAAAUGUAGUUGAGGAGGAGUAGGUUUAUCGAAUUUCCGGCGGAUGCCUCCAAA [C34G G41U U57C] | < 1e-05 | < 1e-05 | < 1e-05 | 
32 | AUAAAAGCGCCAGAACUACAGAAAUGUAGUUGAGGAGGAGGAAGUUUAUCGAAUUUUCGGAGGAGGCCUCCAAA [C34G G43A C61A U65G] | < 1e-05 | < 1e-05 |  | 
33 | AUAAAAGCGCCAGAACUACAGAAAUGUAGUUGAGGAGGAGGAUGUUUAUCGAAUUUUCUGCGGAUGCCUCCAAA [C34G G43U G59U] | < 1e-05 | < 1e-05 | < 1e-05 | 
